Results on 167 variants are retold here after the RNAGym collection of RNA variant scans (doi:10.7554/elife.90254).

The source gives no read counts; variants with many changes may rest on few reads.

B1: LINE1-full (parent)
chain: UACGUAGGUGGUUUUCCCCUGAUAGUGCUAAGGGGGCCUGGAAGUUUGGACUGGGCAGAGCUCAACACAGCGUGGCAAAGUGGCUGUGGCUAGACUGCCUCUCUGGAUUCCUCGUCACUCAGCAGGGCAUCUCUGAGAGAAAUGCC

This data set covers variants of B1. Kind of data set: self-cleavage, relative activity (ratio to wild type); higher = more cleavage; in vitro, sequencing; the parent is a self-cleaving ribozyme.
Take U15C G106A A107G: the self-cleavage came out at 1.9.

Turning to U15C U26A U47C, the self-cleavage amounted to 0.29.

As for U15C A57G G125U, the self-cleavage amounted to 0.95.

For the variant U15C A50U A64G A94U C133A, the self-cleavage came out at 0.36.

With U15C A121G A141G, the self-cleavage amounted to 2.02.

Turning to U15C A24U U45C A142G, the self-cleavage was found to be 0.

With U15A U112C A136G, the self-cleavage is 1.29.

Regarding U15G U73C G75A U143G, the self-cleavage worked out at 0.92.

Turning to C19U A30U U91A, the self-cleavage is 0.54.

For U15C A24G A64G U81C U85A, the self-cleavage came to 0.84.

Take U15G A117G G126A: the self-cleavage turned out to be 0.67.

In the case of U15C U81A A124G A129G, the self-cleavage turned out to be 1.83.

On to U15A U108C C133U, for which the self-cleavage is 1.01.

For C19A U85A A129G, the self-cleavage came to 0.17.

Consider U15A U23C A94G A136G, for which the self-cleavage was determined as 0.

For U15C A64U G114A U134C, the self-cleavage was determined as 0.42.

Turning to C17U A77G U108C G114U U119C A136G, the self-cleavage turned out to be 2.8.

Consider C17U U20C U26A A69U A140G, for which the self-cleavage was found to be 0.08.

As to C19U A22G C145A, the self-cleavage stood at 0.56.

As to C17U G49A U81A U132C, the self-cleavage turned out to be 1.25.

On to U15C U39C A79G U109A, for which the self-cleavage was determined as 1.21.

U15C A64U C116U U132C: the self-cleavage is 0.62.

Regarding C18A C95U U143C, the self-cleavage turned out to be 0.15.

With U15C U85C U134A, the self-cleavage was determined as 0.

Consider C18U U62C U87C, for which the self-cleavage is 0.

For C17U U46C A124C, the self-cleavage stood at 1.91.

Regarding U15A U73C U134C, the self-cleavage is 0.73.

In the case of U15A G32A C110U C131G, the self-cleavage stood at 1.01.

As for U15C C17G A22G G74A G122C, the self-cleavage stood at 1.05.

Turning to C19A A24U G55A U62A A79G, the self-cleavage amounted to 0.05.

On to C19A A31U U115A, for which the self-cleavage was determined as 0.93.

U15C A22G A42G U46C: the self-cleavage is 1.72.

As for U15C A64G A69G G135A, the self-cleavage came out at 0.5.

For U15C U87C U112C, the self-cleavage came out at 0.35.

As for C18U A67G A138G, the self-cleavage stood at 0.

In the case of U15C U91C A92U U96A, the self-cleavage amounted to 0.06.

For C19U A22U A69U U112A, the self-cleavage was 0.13.

As to C17U C38U A124U, the self-cleavage turned out to be 1.34.

Consider U15C U20C A77G U143C, for which the self-cleavage was 2.05.

C18A A92G U134G: the self-cleavage turned out to be 0.

In the case of U15C A31G C51A A136G, the self-cleavage turned out to be 1.46.

For the variant C18U C28A A78G U112C, the self-cleavage was 1.14.

Regarding U15C U81G A136G, the self-cleavage was 2.22.

C19U A22G A24U A79C: the self-cleavage was found to be 1.37.

Consider C19A U45C A141G, for which the self-cleavage stood at 1.77.

Take U15C U62C U73A U100A: the self-cleavage worked out at 0.05.

Consider C19U A64C A69G U109C, for which the self-cleavage turned out to be 0.

As to C19U A64G U96C A117U G122C A138G, the self-cleavage came out at 0.1.

With U15C A94G U96C U130C, the self-cleavage came out at 0.

As for U15C G25A A65G G88A C99U, the self-cleavage is 0.03.

Take U15A U134C A136U A142G: the self-cleavage turned out to be 0.94.

For C16U U62C A64G, the self-cleavage turned out to be 0.04.

With U15C U108A A141G A142G, the self-cleavage was 2.63.

As to C18U U115A U143C, the self-cleavage was determined as 0.46.

As for U15C U81G G114U, the self-cleavage was determined as 1.21.

Regarding U15C C131U U132C, the self-cleavage came to 0.94.

C19U A57U A67G U96A A117G U143A: the self-cleavage came to 0.

For the variant C19U A69U A142G, the self-cleavage was determined as 0.05.

For C16A C51U A57U U85C, the self-cleavage amounted to 0.04.

Regarding U15C U115A A142G, the self-cleavage is 1.57.

For U15C G72A A79G G83U G122U, the self-cleavage worked out at 1.56.

With U15C C18A U100A A142G, the self-cleavage was found to be 0.59.

Turning to U15C C61U A107G, the self-cleavage worked out at 0.09.

For U15A U115C A136G, the self-cleavage was 1.77.

Regarding U15C U73C A142G, the self-cleavage is 2.76.

With U15C G41A A107U U109G A129G, the self-cleavage was 0.

Consider C19A C37U U39C U52C U62C U102A, for which the self-cleavage was found to be 0.

For U15C C16U U87A, the self-cleavage was 0.07.

Regarding U15C C90U A124G, the self-cleavage turned out to be 0.05.

On to U15C A22G A43G A59G C145A, for which the self-cleavage turned out to be 0.

On to U15A U20A A59U A65G, for which the self-cleavage turned out to be 0.14.

On to U15C U115C G122U, for which the self-cleavage came to 1.37.

In the case of U15C A42U U87C, the self-cleavage worked out at 0.31.

With U15A U73C U91A U109C, the self-cleavage was 1.84.

Turning to U15C U47G A129G, the self-cleavage came to 1.75.

For the variant U15C A42U U46C, the self-cleavage turned out to be 1.06.

With U15A U46A U47C U85A, the self-cleavage was 0.03.

Consider C17A G74A U130A, for which the self-cleavage is 1.22.

As to U15C A77G C113U A121U, the self-cleavage was 2.23.

In the case of U15C G82A U102C, the self-cleavage was 2.02.

Turning to U15C U45C G126A, the self-cleavage came out at 1.08.

For U15C U45C G53A U85C, the self-cleavage amounted to 0.18.

Take U15C U87A A117U: the self-cleavage came to 0.08.

For C17U A77U A140G, the self-cleavage is 0.93.

For U15A U96C G122C, the self-cleavage came to 0.08.

As to U15C U20C U26A U132C, the self-cleavage is 0.27.

For C18A U104A C110U A142G, the self-cleavage was 1.64.

As to C16U A31G G33A U45C A94U C95U U100C A121G, the self-cleavage is 0.11.

As for C19A A69G G135A, the self-cleavage was found to be 0.44.

On to C18U G53U G127C A136U, for which the self-cleavage came to 1.19.

On to U15C U20A A43U, for which the self-cleavage came out at 1.46.

For the variant U15C U102C C116U, the self-cleavage is 1.34.

For C16U U26C U73C, the self-cleavage came out at 1.23.

Regarding U15C U26C A140G, the self-cleavage was determined as 1.31.

For the variant C19U A22G U115A A136U A138G U143C, the self-cleavage is 0.91.

Regarding U15C A138G A140G, the self-cleavage amounted to 2.3.

Regarding U15C A64G U91C, the self-cleavage was found to be 0.

As to C18A U132C A140C, the self-cleavage turned out to be 2.04.

For C17U A77G U87C U143C, the self-cleavage came to 0.35.

U15G A30U A42G A65U A79G: the self-cleavage stood at 0.

For the variant C18U A43G U46C U73A, the self-cleavage came to 0.79.

Turning to U15C G34U A50G, the self-cleavage is 0.77.

Turning to U15C A67G A77G, the self-cleavage amounted to 1.23.

Take U15A G34U U62C: the self-cleavage worked out at 0.06.

Regarding C17U U26C A57U A64G A129U, the self-cleavage worked out at 0.

Regarding U15C A42U A67G G75U A141G, the self-cleavage was determined as 0.34.

U15C U52A U96A U100A: the self-cleavage is 0.11.

As to U15A G36U A69G U73A A124U, the self-cleavage is 0.24.

In the case of U15C U73C A121G, the self-cleavage was found to be 2.3.

In the case of C17A U20A A65G A141G, the self-cleavage worked out at 0.06.

On to U15C U109G C118A, for which the self-cleavage was 0.72.

Regarding C17U U62A A94G U112C, the self-cleavage stood at 0.13.

Take C17A A30G U46A: the self-cleavage worked out at 0.55.

U15C U100C A124G: the self-cleavage stood at 1.74.

As for C17G A65C A79G, the self-cleavage came to 0.31.

On to U15C A65G U73C G74A U112C A140G, for which the self-cleavage worked out at 0.05.

As for U15C A42G U45A A57U U96A, the self-cleavage stood at 0.6.

Regarding U15C G54A A67G U91C, the self-cleavage amounted to 0.2.

Regarding U15C A31U A59G A65G A141G, the self-cleavage came out at 0.51.

U15A U85C C133U A142G U143A: the self-cleavage worked out at 0.63.

For U15C A59U A67C U73C, the self-cleavage came out at 0.19.

As for U15G U26A G48A, the self-cleavage came out at 0.77.

As to C17U A31G A43G A50G, the self-cleavage amounted to 0.92.

Turning to U15A U46A A78G, the self-cleavage was determined as 1.24.

With U15C U87A A124G, the self-cleavage was 0.06.

As to U15C C101U U104A, the self-cleavage came out at 1.26.

Turning to U15C U52C U102G, the self-cleavage is 1.15.

As for U15C A30U U96C, the self-cleavage amounted to 0.22.

With U15A U26C C118U G126A, the self-cleavage is 2.17.

For U15C U29C A31G U39C A140U, the self-cleavage was 2.04.

Take U15C U81C U91C U112C G125A: the self-cleavage amounted to 1.53.

Turning to C17G A78G U132C, the self-cleavage came out at 1.48.

Turning to U15C U23C U62C U91C, the self-cleavage turned out to be 0.92.

On to U15C C71U A79G U81C A94C, for which the self-cleavage turned out to be 0.

For the variant U15C A31U G144U, the self-cleavage came to 0.58.

In the case of C17A U47A A79G A107G C128U, the self-cleavage was 0.84.

Consider U15A U47C U134A, for which the self-cleavage stood at 0.49.

As for U15C U26C C71A, the self-cleavage is 0.3.

With U15C A57G A67U U104A, the self-cleavage is 0.

Regarding U15C C37G C61U U134C, the self-cleavage is 0.03.

Take U15C U26C A50G: the self-cleavage was 0.73.

U15A U45C U52A U115C: the self-cleavage is 1.97.

For U15C G21A U112A U134C, the self-cleavage worked out at 2.83.

As to U15C A64G C118A, the self-cleavage amounted to 0.44.

In the case of U15C A64U A78G, the self-cleavage worked out at 0.53.

Consider U15C C17A U91C, for which the self-cleavage was determined as 0.98.

Consider U15C A69U A94G, for which the self-cleavage worked out at 0.1.

As to C19A U20C A107G, the self-cleavage came to 1.23.

Consider U15C G122C U143A, for which the self-cleavage amounted to 1.49.

Take U15C G33A A50G U115C U134C C146U: the self-cleavage stood at 2.3.

In the case of U15A U85C G86A, the self-cleavage was 0.07.

With U15C G35A U81A U100C, the self-cleavage stood at 1.67.

As to U15C A57G U81A, the self-cleavage was 0.56.

U15C A30G U130C: the self-cleavage came to 1.07.

Consider U15C A77G A78G, for which the self-cleavage was found to be 2.37.

Turning to U15C U109A U130C, the self-cleavage was 1.71.

With U15C A57G U115C, the self-cleavage was 0.

For U15C U45C A138C, the self-cleavage is 2.16.

Consider U15A U29A U45A A140G, for which the self-cleavage was determined as 0.78.

Turning to U15C U45C G58U G74U U104A U109C, the self-cleavage stood at 0.01.

Turning to C19G U20C A69U, the self-cleavage was 0.19.

Take U15C A30G U104G A107G G144A: the self-cleavage was 1.31.

Turning to U15C G72C A141G, the self-cleavage was 1.31.

Consider U15C G70U A77G G86U, for which the self-cleavage stood at 0.05.

With C18U C51A U96C, the self-cleavage amounted to 0.

For U15C A77U G106A C110U, the self-cleavage turned out to be 1.35.

As for C17U U29C U47A A77U A141G, the self-cleavage was 0.65.
